Some of the results follow.
Experiments:
Test in all cases: glycan array binding signal (z-score within array); higher = stronger binding
Conditions in all cases: glycan notation: IUPAC condensed, linker removed
[1] = molecular target: Man(a1-2)Man(a1-3)[Man(a1-2)Man(a1-6)]Man(a1-6)[Man(a1-2)Man(a1-2)Man(a1-3)]Man
Outline: (§1)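 The Consortium for Functional Glycomics database supplied 3228 glycan arrays, of which those lacking an available protein sequence were dropped. The binding signal, a within-array Z-score, was averaged across arrays of the same protein sequence and across linkers. Negative scores can be read as non-binding.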

[2] = molecular target: Man(a1-2)Man(a1-3)[Man(a1-2)Man(a1-6)]Man(a1-6)[Man(a1-2)Man(a1-2)Man(a1-3)]Man(b1-4)GlcNAc(b1-4)GlcNAc
Outline: as §1

[3] = molecular target: Man(a1-2)Man(a1-3)[Man(a1-6)]Man(a1-6)[Man(a1-2)Man(a1-3)]Man(b1-4)GlcNAc(b1-4)GlcNAc
Outline: as §1

[4] = molecular target: Man(a1-2)Man(a1-6)[Man(a1-3)]Man(a1-6)[Man(a1-2)Man(a1-2)Man(a1-3)]Man
Outline: as §1

[5] = molecular target: Man(a1-2)Man(a1-6)[Man(a1-3)]Man(a1-6)[Man(a1-2)Man(a1-2)Man(a1-3)]Man(b1-4)GlcNAc(b1-4)GlcNAc
Outline: as §1

Man(a1-3)[Man(a1-6)]Man = molecular target: Man(a1-3)[Man(a1-6)]Man
Outline: as §1

[6] = molecular target: Man(a1-3)[Man(a1-6)]Man(a1-6)[Man(a1-2)Man(a1-3)]Man(b1-4)GlcNAc(b1-4)GlcNAc
Outline: as §1

[7] = molecular target: Man(a1-3)[Man(a1-6)]Man(a1-6)[Man(a1-3)]Man
Outline: as §1

[8] = molecular target: Man(a1-3)[Man(a1-6)]Man(a1-6)[Man(a1-3)]Man(b1-4)GlcNAc(b1-4)GlcNAc
Outline: as §1

[9] = molecular target: Man(a1-3)[Man(a1-6)]Man(b1-4)GlcNAc(b1-4)GlcNAc
Outline: as §1

[10] = molecular target: Man(a1-3)[Man(a1-6)]Man(b1-4)GlcNAc(b1-4)[Fuc(a1-6)]GlcNAc
Outline: as §1

Man(a1-6)Man = molecular target: Man(a1-6)Man
Outline: as §1

Man(b1-4)GlcNAc = molecular target: Man(b1-4)GlcNAc
Outline: as §1

MurNAc(b1-4)GlcNAc = molecular target: MurNAc(b1-4)GlcNAc
Outline: as §1

Neu5Ac(a2-3)Gal = molecular target: Neu5Ac(a2-3)Gal
Outline: as §1

[11] = molecular target: Neu5Ac(a2-3)Gal(b1-3)GalNAc
Outline: as §1

[12] = molecular target: Neu5Ac(a2-3)Gal(b1-3)GalNAc(b1-3)Gal(a1-4)Gal(b1-4)Glc
Outline: as §1

[13] = molecular target: Neu5Ac(a2-3)Gal(b1-3)GalNAc(b1-4)[Neu5Ac(a2-3)]Gal(b1-4)Glc
Outline: as §1

[14] = molecular target: Neu5Ac(a2-3)Gal(b1-3)GalNAc(b1-4)[Neu5Ac(a2-8)Neu5Ac(a2-3)]Gal(b1-4)Glc
Outline: as §1

[15] = molecular target: Neu5Ac(a2-3)Gal(b1-3)GalNAc6S
Outline: as §1

[16] = molecular target: Neu5Ac(a2-3)Gal(b1-3)GlcNAc
Outline: as §1

[17] = molecular target: Neu5Ac(a2-3)Gal(b1-3)GlcNAc(b1-2)Man
Outline: as §1

[18] = molecular target: Neu5Ac(a2-3)Gal(b1-3)GlcNAc(b1-2)Man(a1-3)[GlcNAc(b1-4)][Neu5Ac(a2-3)Gal(b1-3)GlcNAc(b1-2)Man(a1-6)]Man(b1-4)GlcNAc(b1-4)GlcNAc
Outline: as §1

[19] = molecular target: Neu5Ac(a2-3)Gal(b1-3)GlcNAc(b1-2)Man(a1-3)[Neu5Ac(a2-3)Gal(b1-3)GlcNAc(b1-2)Man(a1-6)]Man(b1-4)GlcNAc(b1-4)GlcNAc
Outline: as §1

[20] = molecular target: Neu5Ac(a2-3)Gal(b1-3)GlcNAc(b1-3)Gal(b1-3)GlcNAc
Outline: as §1

[21] = molecular target: Neu5Ac(a2-3)Gal(b1-3)GlcNAc(b1-3)Gal(b1-4)GlcNAc
Outline: as §1

[22] = molecular target: Neu5Ac(a2-3)Gal(b1-3)GlcNAc(b1-3)GalNAc
Outline: as §1

[23] = molecular target: Neu5Ac(a2-3)Gal(b1-3)GlcNAc(b1-4)Gal(b1-4)Glc
Outline: as §1

[24] = molecular target: Neu5Ac(a2-3)Gal(b1-3)GlcNAc(b1-6)GalNAc
Outline: as §1

[25] = molecular target: Neu5Ac(a2-3)Gal(b1-3)GlcNAc6S
Outline: as §1

[26] = molecular target: Neu5Ac(a2-3)Gal(b1-3)[Fuc(a1-4)]GlcNAc
Outline: as §1

[27] = molecular target: Neu5Ac(a2-3)Gal(b1-3)[Fuc(a1-4)]GlcNAc(b1-3)Gal(b1-3)[Fuc(a1-4)]GlcNAc
Outline: as §1

[28] = molecular target: Neu5Ac(a2-3)Gal(b1-3)[Fuc(a1-4)]GlcNAc(b1-3)Gal(b1-4)[Fuc(a1-3)]GlcNAc
Outline: as §1

[29] = molecular target: Neu5Ac(a2-3)Gal(b1-3)[GlcNAc(b1-6)]GalNAc
Outline: as §1

[30] = molecular target: Neu5Ac(a2-3)Gal(b1-3)[Neu5Ac(a2-6)]GalNAc
Outline: as §1

[31] = molecular target: Neu5Ac(a2-3)Gal(b1-3)[Neu5Ac(a2-6)]GlcNAc(b1-3)[Fuc(a1-3)[Gal(b1-4)]GlcNAc(b1-6)]Gal(b1-4)Glc
Outline: as §1

[32] = molecular target: Neu5Ac(a2-3)Gal(b1-3)]Neu5Ac(a2-3)Gal(b1-4)]GlcNAc
Outline: as §1

B1: GS14009A-pdi-495-27-495 (Parabacteroides distasonis) (protein)
chain: FEEVNTDPDSPTDVPTTNLLAYSLYYTSYRLYDRWFAMDEPMTFCGYASKMTYIDESRYNFRTGVQDTNWEYLYRILNNLKDIEKRATFNETPNMLNVSKVMQVHLMQVATDRWRDVPYTDAAKMTDGILQPKYDKQEDIYPGLLATLKEAADGFADGGSDDLGEGDLLFGGDIEKWQRYCNSMRLRLAMRISEVSPALAKETVEEVMGNPTKYPIMESNDDNAFFWWIGTDPNYYEPMADGYRTRKTEYCAADVIVDHMNTREDPRRSSYFQPTKESVEAGEPKYVGYTIGAKANAVASKYSIWGARFFTDLAGFSPYMRVAEPWFCVAEASMLGWNTGISAEDAYNKAVTYSMEENSVSAEDIADYLANAGKFTNDKKQIYYEEWVAMFKQGMEGWSLYRRTGVPDNLYPAPGRPANYSNHNVPPFRSPYPDKERNLNNANCAPFDAEVVDNLWGKQMWWDTRTGVH
- glycan array binding signal (z-score) [1]: -0.522
- glycan array binding signal (z-score) [2]: 0.436
- glycan array binding signal (z-score) [3]: 0.95
- glycan array binding signal (z-score) [4]: -0.204
- glycan array binding signal (z-score) [5]: -0.815
- glycan array binding signal (z-score) (Man(a1-3)[Man(a1-6)]Man): 0.286
- glycan array binding signal (z-score) [6]: 0.546
- glycan array binding signal (z-score) [7]: 0.839
- glycan array binding signal (z-score) [8]: -0.248
- glycan array binding signal (z-score) [9]: -0.313
- glycan array binding signal (z-score) [10]: -0.62
- glycan array binding signal (z-score) (Man(a1-6)Man): -0.213
- glycan array binding signal (z-score) (Man(b1-4)GlcNAc): 0.43
- glycan array binding signal (z-score) (MurNAc(b1-4)GlcNAc): -0.393
- glycan array binding signal (z-score) (Neu5Ac(a2-3)Gal): -0.987
- glycan array binding signal (z-score) [11]: -0.605
- glycan array binding signal (z-score) [12]: -0.008
- glycan array binding signal (z-score) [13]: -0.111
- glycan array binding signal (z-score) [14]: -0.25
- glycan array binding signal (z-score) [15]: -0.004
- glycan array binding signal (z-score) [16]: -0.243
- glycan array binding signal (z-score) [17]: -0.522
- glycan array binding signal (z-score) [18]: -0.255
- glycan array binding signal (z-score) [19]: -0.174
- glycan array binding signal (z-score) [20]: -0.682
- glycan array binding signal (z-score) [21]: -0.404
- glycan array binding signal (z-score) [22]: -0.635
- glycan array binding signal (z-score) [23]: -0.576
- glycan array binding signal (z-score) [24]: -0.205
- glycan array binding signal (z-score) [25]: -0.08
- glycan array binding signal (z-score) [26]: -0.401
- glycan array binding signal (z-score) [27]: -0.618
- glycan array binding signal (z-score) [28]: 0.208
- glycan array binding signal (z-score) [29]: -0.177
- glycan array binding signal (z-score) [30]: -0.544
- glycan array binding signal (z-score) [31]: -0.04
- glycan array binding signal (z-score) [32]: -1.02

— the supplement of paper PMC8728848
